The record followed here is patent US20090291885A1 (Amgen, published 2009).

This assay has as its target T1, human Kv1.3 channel (human).
T1 construct: whole, on cells; also called hKv1.3; HEK293/Kv1.3
The assay is described as follows: enzyme-immunoassay on fixed HEK 293 cells stably transfected with human Kv1.3.

B1: Fc-L10-ShK[[…]] (Fc fusion)
chain: not shown
In the case of B1, the binding result was “binds”.
